Data taken from patent US9796662B2 (priority 2010, dated 2017).

Settings: 342 ppm water; for sol (solubility), Adjuvant: test sample as adjuvant (anionic/nonionic blend replacement)
Experimental: Surfactant candidates for water soluble herbicide applications are examined as a replacement for the anionic, nonionic, or anionic/nonionic blend portion and compared to a known industry adjuvant standard for use in paraquat, a water soluble herbicide concentrate formulation. A standard dilution test is conducted whereby the concentrates are diluted in water to determine if solubility is complete.
A known industry paraquat adjuvant (2.8 g) is added and vigorously mixed for 30 s. Deionized water (8.07 g) is added, and mixing resumes for 30 s. Standard 342 ppm water (47.5 mL) is added to a 50-mL Nessler cylinder, which is stoppered and equilibrated in a 30° C. water bath. Once the test water equilibrates, the formulated paraquat (2.5 mL) is added by pipette into the cylinder. The cylinder is stoppered and inverted ten times. Solubility is recorded as complete or incomplete. Cylinders are allowed to stand and the amount (in mL) and type of separation are recorded after 30 min., 1 h, 2 h, and 24 h. Results of the solubility testing appear in Table 8 below.
Anionic test sample: Paraquat (4.57 g of 43.8% active material) is added to a 20-mL glass vial. An eight to ten mole alkyl phenol ethoxylate surfactant (0.7 g) is added and vigorously mixed for 30 s. Test sample (0.7 g) is added and mixing resumes for 30 s. Deionized water (4.03 g) is added, and mixing resumes for 30 s.
Nonionic test sample: Paraquat (4.57 g of 43.8% active material) is added to a 20-mL glass vial. Test sample (0.7 g) is added and vigorously mixed for 30 s. Sodium linear alkylbenzene sulfonate (“NaLAS,” 0.7 g) is added and mixing resumes for 30 s. Deionized water (4.03 g) is added, and mixing resumes for 30 s.
Adjuvant (anionic/nonionic) test sample: Paraquat (4.57 g of 43.8% active material) is added to a 20-mL glass vial. Test sample (1.4 g) is added and vigorously mixed for 30 s. Deionized water (4.03 g) is added, and mixing resumes for 30 s.

In the case of `C[N+](C)(C)CCOC(=O)CCCCCCC/C=C/CCCCCCCC(=O)OCC[N+](C)(C)C` [Mix-16, C18 diMEA DiQuat], the “sol (solubility), Adjuvant” value was “S”.
For `CC/C=C/CCCCCCCC(=O)OCC[N+](C)(C)C` [C12-7, C12 DMEA Ester Quat], the “sol (solubility), Adjuvant” value was “S”.
With `C=CCCCCCCCC(=O)OCC[N+](C)(C)C` [C10-7, C10 DMEA Ester Quat] the “sol (solubility), Adjuvant” value was “S” and the “sol (solubility), Nonionic” value (test sample replaces nonionic portion, with NaLAS) was “S”.
